Source: the CheMixHub viscosity set
Where “and” joins values, the source holds several entries; their conditions need not be identical. Identical values can stand only once. The source gives many values for each of these; only a part stands here.

Columns and labels:
[1] = xn = mol fraction of the nth substance listed; conditions: 101.33 kPa

CC[n+]1ccn(C)c1.N#C[N-]C#N
viscosity [mPa·s]
Conditions | 293.15 K | 303.15 K | 308.15 K | 313.15 K | 318.15 K | 323.15 K
100 kPa | – | – | 11.05 | 9.76 | 8.69 | –
101 kPa | 17.41 | 12.96 | – | 10.05 | – | 8.277

CN[C@@H]1[C@H](O[C@H]2[C@H](O[C@H]3[C@H](O)[C@@H](O)[C@H](NC(=N)N)[C@@H](O)[C@@H]3NC(=N)N)O[C@@H](C)[C@]2(O)C=O)O[C@@H](CO)[C@H](O)[C@H]1O.CN[C@@H]1[C@H](O[C@H]2[C@H](O[C@H]3[C@H](O)[C@@H](O)[C@H](NC(=N)N)[C@@H](O)[C@@H]3NC(=N)N)O[C@@H](C)[C@]2(O)C=O)O[C@@H](CO)[C@H](O)[C@H]1O.O=S(=O)(O)O.O=S(=O)(O)O.O=S(=O)(O)O + O
viscosity, [1]
Conditions | x1 = 5e-07 | x1 = 7e-07 | x1 = 9e-07 | x1 = 1e-06 | x1 = 1.8e-06 | x1 = 2e-06 | x1 = 2.2e-06
298.15 K | 0.8956 mPa·s | – | – | – | – | – | –
308.15 K | 0.7227 mPa·s | 0.7234 mPa·s | 0.7241 mPa·s | 0.7249 mPa·s and 0.7256 mPa·s and 0.7264 mPa·s | 0.7294 mPa·s | 0.7271 mPa·s and 0.7302 mPa·s | 0.7308 mPa·s
313.15 K | 0.6555 mPa·s | 0.656 mPa·s | 0.6567 mPa·s | 0.6574 mPa·s and 0.6581 mPa·s and 0.6588 mPa·s | 0.6602 mPa·s | 0.6595 mPa·s and 0.6626 mPa·s | 0.6632 mPa·s

O
Conditions | viscosity
293.15 K, 101 kPa | 1.026 mPa·s
294.55 K, 101.33 kPa | 0.968 mPa·s
295.1 K, 101.32 kPa | 0.9532 mPa·s
298.15 K, 101 kPa | 0.997 mPa·s and 0.8756 mPa·s
298.15 K, 101.33 kPa | 0.877 mPa·s and 0.8893 mPa·s
300.12 K, 101.33 kPa | 0.853 mPa·s
300.2 K, 101 kPa | 0.91 mPa·s
301.15 K, 101 kPa | 0.8325 mPa·s
301.15 K, 101.32 kPa | 0.8206 mPa·s
302.15 K, 101 kPa | 0.8143 mPa·s and 0.8148 mPa·s
302.35 K, 101 kPa | 0.807 mPa·s
303.15 K, 100 kPa | 0.86 mPa·s and 0.856 mPa·s and 0.79 mPa·s
303.15 K, 101.3 kPa | 0.803 mPa·s and 0.754 mPa·s
303.15 K, 101.33 kPa | 0.8075 mPa·s and 0.8121 mPa·s and 0.794 mPa·s
304.15 K, 101.32 kPa | 0.7594 mPa·s
304.15 K, 101.33 kPa | 0.778 mPa·s
306.15 K, 101 kPa | 0.7491 mPa·s
306.99 K, 101.33 kPa | 0.73 mPa·s
307.15 K, 101.32 kPa | 0.7095 mPa·s
308.15 K, 101 kPa | 0.7167 mPa·s and 0.729 mPa·s
308.15 K, 101.3 kPa | 0.734 mPa·s and 0.734 mPa·s
308.15 K, 101.33 kPa | 0.716 mPa·s and 0.6922 mPa·s and 0.717 mPa·s
309.15 K, 101 kPa | 0.7045 mPa·s
310.15 K, 101 kPa | 0.6947 mPa·s
310.15 K, 101.32 kPa | 0.662 mPa·s
311.15 K, 101 kPa | 0.6784 mPa·s
313.15 K, 100 kPa | 0.6882 mPa·s and 0.657 mPa·s and 0.658 mPa·s
313.15 K, 101.3 kPa | 0.619 mPa·s and 0.619 mPa·s and 0.624 mPa·s
313.15 K, 101.32 kPa | 0.6237 mPa·s
313.15 K, 101.33 kPa | 0.666 mPa·s and 0.6382 mPa·s
313.85 K, 101.33 kPa | 0.657 mPa·s
315.15 K, 101 kPa | 0.6279 mPa·s
318.15 K, 100 kPa | 0.591 mPa·s and 0.6 mPa·s
318.15 K, 101.3 kPa | 0.591 mPa·s and 0.587 mPa·s
318.15 K, 101.33 kPa | 0.5862 mPa·s and 0.594 mPa·s
323.05 K, 101.33 kPa | 0.5529 mPa·s
323.15 K, 100 kPa | 0.5831 mPa·s and 0.539 mPa·s
323.15 K, 101 kPa | 0.571 mPa·s and 0.556 mPa·s
323.15 K, 101.3 kPa | 0.553 mPa·s and 0.556 mPa·s
323.15 K, 101.33 kPa | 0.558 mPa·s
